# Measured values published in the supplement of paper PMC12217912.
# Some of the results follow. Sequences were assembled here from the parent chain. Values near 0.05 are background.
# B1: TEV protease; numbered along this chain (parent)
# chain: MGESLFKGPRDYNPISSSICHLTNESDGHTTSLYGIGFGPFIITNKHLFRRNNGTLVVQSLHGVFKVKDTTTLQQHLVDGRDMIIIRMPKDFPPFPQKLKFREPQREERICLVTTNFQTKSMSSMVSDTSCTFPSGDGIFWKHWIQTKDGQCGSPLVSTRDGFIVGIHSASNFTNTNNYFTSVPKNFMELLTNQEAQQWVSGWRLNADSVLWGGHKVFMVKPEEPFQPVKEATQL
# Variants of: B1
# Test: raw area under fraction-flipped curve 0-4 h after induction (AUC4h, not background-subtracted), DNA-recorder readout of cleavage of the substrate (dimensionless); higher = more cleavage of the substrate by the protease variant
# Conditions: temperature: 34 °C; time window: 0-4 h after rhamnose induction
# Procedure: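 In vivo DNA recorder in E. coli TOP10(DE3) ΔrhaA at 34 °C. Each TEVp single-site mutant (parent TEVp 0) is paired with a single-site variant of the 7-mer TEVs (canonical ENLYFQ|S). The substrate sits between flexible linkers in a Bxb1-sfGFP-TEVs-SsrA fusion, so cleavage stabilises Bxb1 and speeds flipping of a recombination array, read by NGS. The value is the raw area under the fraction-flipped curve over 0-4 h after rhamnose induction (AUC4h), with ≥20 reads per time point. It is not background-subtracted; inactive controls average about 0.047.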
# 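Also: Bxb1 expression induced with 0.2% (w/v) L-rhamnose at OD600 near 0.5, cultures sampled hourly, flipped fraction per protease–substrate barcode pair counted by paired-end Illumina sequencing.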
Variant,area with substrate ENLAFQS,area with substrate ENLCFQS,area with substrate ENLDFQS,area with substrate ENLEFQS,area with substrate ENLFFQS,area with substrate ENLGFQS,area with substrate ENLHFQS,area with substrate ENLIFQS,area with substrate ENLKFQS,area with substrate ENLLFQS,area with substrate ENLMFQS,area with substrate ENLNFQS,area with substrate ENLPFQS,area with substrate ENLRFQS,area with substrate ENLSFQS,area with substrate ENLWFQS,area with substrate ENLQFQS,area with substrate ENLVFQS,area with substrate ENLTFQS
S123D,0.0497,0.0732,0.0678,0.0624,0.0823,0.0718,0.0701,0.086,0.0748,0.0636,0.0693,0.0629,0.0443,0.0659,0.0703,0.0725,–,–,–
S123I,0.0531,0.0885,0.0631,0.0751,0.0951,–,0.065,–,0.0759,0.0675,0.0738,0.0675,0.0612,0.0673,0.0459,0.0511,0.0741,0.0807,–
M83D,0.0452,0.0267,0.0496,0.0481,0.0345,0.0471,0.0639,0.0575,0.0512,0.0706,0.0489,0.0478,0.0572,0.0572,–,0.0462,0.0524,–,–
Q75K,0.059,–,0.0624,0.0545,0.0757,–,0.0568,0.0664,0.0658,0.0601,–,0.0575,0.0596,0.0607,0.0548,0.0531,0.0573,–,–
Q75R,0.0618,–,0.0639,–,0.0853,0.0675,0.0688,0.0489,0.0549,–,–,0.0596,0.0586,0.0567,0.0679,0.0615,0.0771,–,–
I84G,0.0527,–,0.0493,–,0.0356,0.0438,0.0454,0.0778,0.0538,0.062,–,0.0235,0.038,–,0.0592,–,0.0424,–,–
I84E,0.0622,0.0501,0.0472,0.0542,0.0606,–,0.054,0.0629,0.0601,0.0595,0.0623,0.0134,–,–,0.0533,0.0542,0.0604,0.0586,0.0526
T132A,0.0674,–,0.0551,0.0641,0.0943,0.0572,0.0635,0.0674,0.077,0.0827,–,0.0692,0.0615,0.0621,0.0647,–,0.0698,0.0871,0.0714
D82K,0.0772,0.0695,0.0684,–,0.0466,–,0.0551,0.0717,0.0631,–,–,0.0661,0.0561,–,–,0.0517,–,–,–
D82N,0.0539,0.0629,0.0657,0.0644,0.0587,–,0.0592,–,0.0569,–,–,0.0588,0.0578,0.0471,0.0771,0.0838,0.0636,–,0.0519
I86Q,0.0488,–,0.0499,–,0.0452,0.068,0.0421,0.0437,0.0359,0.0383,0.0257,0.0418,0.0518,0.0507,–,–,0.0326,–,–
I86V,0.068,–,0.0612,0.0758,0.0904,0.0623,–,0.0649,0.074,–,–,0.0668,–,0.0687,0.0574,0.0964,0.0595,0.0837,–
S130Y,0.0668,0.065,0.0546,0.0559,0.0678,0.0607,0.0558,–,0.0679,–,0.0686,0.0724,0.0411,0.0669,0.0553,0.0741,0.0808,–,–
H76R,0.0698,–,0.0553,0.0611,0.0741,–,0.071,0.0603,0.0726,0.0552,0.0823,0.0518,0.0394,0.0643,0.0553,0.063,–,–,–
I110D,0.0405,0.0629,0.0514,0.0517,0.0651,0.0456,0.048,–,0.0605,0.0497,–,0.0554,0.0443,0.0516,0.0604,–,0.0541,0.0518,–
I110T,0.0636,0.0724,0.0513,0.0535,0.062,0.0611,0.0612,0.064,0.0692,–,0.0698,0.0558,0.0661,0.0689,0.0501,0.0694,0.0536,0.0752,–
F92C,0.066,–,0.0575,–,0.0735,–,0.0794,–,0.085,–,–,–,0.0647,0.0723,0.0675,0.066,0.0602,0.0824,0.0638
L99D,0.0588,–,0.043,–,0.058,–,0.0531,0.0496,0.0678,–,–,–,–,–,–,–,–,–,–
R81C,0.0656,0.06,0.0594,0.0685,0.072,0.0752,0.0708,0.0678,0.0843,0.0837,0.0637,0.0577,0.0461,0.0639,0.0653,0.0608,0.0754,–,–
K90W,0.0781,0.0867,0.0599,0.0658,0.074,–,0.0757,0.0923,0.0849,0.059,–,0.061,0.0762,0.0695,0.082,0.0417,0.0369,0.093,–
I85R,0.0473,0.0508,0.0969,–,–,–,0.0584,0.0733,0.0694,0.0658,–,0.0455,–,0.0575,0.0338,–,–,–,–
Q105R,0.0586,0.0629,0.066,0.0514,0.0822,0.0743,0.0695,0.0948,0.0864,–,–,0.0681,0.0577,0.0834,0.0788,0.0359,–,0.0743,0.052
Q105D,0.0662,0.0701,0.0585,0.092,0.0758,0.07,0.124,–,0.0735,0.077,–,0.0267,0.0689,0.0515,0.0734,0.0565,0.0779,0.0848,0.0361
E108A,0.0367,0.0471,0.0573,0.0547,0.0639,–,0.0379,0.0717,0.0594,0.0616,0.0617,0.063,–,0.0579,0.05,0.056,–,–,–
T114Y,0.059,–,0.0676,–,0.0824,0.0743,–,0.0844,0.072,0.0825,0.0681,0.0618,–,0.0739,–,–,0.0694,–,–
